The source of these data is ChEMBL document CHEMBL4888484, “Replenishing the malaria drug discovery pipeline: Screening and hit evaluation of the MMV Hit Generation Library 1 (HGL1) against asexual blood stage Plasmodium falciparum ,using a nano luciferase reporter read-out” (2022).

The campaign covered roughly 150,000 compounds. About 540 (0.36%) showed an effect of 50% or more. The list shows a part of the results.

In the experiment the test system is Plasmodium falciparum. Nature of the experiment: Primary screen in NF54 nanoGlo assay, in single point, at 2uM, 72h; a lower Z score goes with more inhibition. The class given is functional, Erythrocyte. Particulars: timepoint 72 hour.
Usually % Inhibition stands for the relative decrease from the control value, in per cent. As for `N#Cc1cc(N2CC[C@H](S(N)(=O)=O)C2)ccn1`, the “% Inhibition” value is given as 4% and the Z score is recorded as -0.61.
For the compound `COc1ccccc1CNC(=O)c1ccc(C)nc1C1CCN(S(=O)(=O)c2ccccc2)CC1`, the “% Inhibition” value is -9% and the Z score amounted to 1.05.
Turning to `O=S(=O)(c1ccc(S(=O)(=O)N(Cc2ccc(F)cc2)C2CCCCC2)cc1)N1CCOCC1`, the “% Inhibition” value is recorded as -2% and the Z score turned out to be 0.21.
For `O=C(Nc1ccc(CCc2nc3ccccc3[nH]2)cc1)c1cnccn1`, the “% Inhibition” value is given as -17% and the Z score is on record as 1.66.
Turning to `C1=C[C@@H](N2CCN(c3cc(N4CCOCC4)ncn3)CC2)CCC1`, the “% Inhibition” value worked out at 4% and the Z score is given as -0.54.
In the same order, the values of `CC(NC(=O)N(C)C)C1Oc2ccccc2C1C` (stereo not drawn) are 12% and -1.9.
In the same order, the values of `CN(Cc1cc(-c2ccccc2)on1)c1nc2c(c(=O)[nH]1)CCNCC2` are -10% and 1.55.
On to `O=C(C[C@@H]1CCNC[C@@H]1Cc1cc(CN2CCN(c3ccccc3)CC2)on1)N1CCC(Cc2ccccc2)CC1`, for which the “% Inhibition” value is 10% and the Z score was -1.49.
For the compound `COc1nn(C)cc1C(=O)N1CCC[C@H](COCc2ccccc2)C1`, the “% Inhibition” value was -3% and the Z score stood at 0.57.
In the case of `Cc1n[nH]c(C2CC2)c1C(=O)NCCN1CCCC[C@@H]1CO`, the “% Inhibition” value was 0% and the Z score is recorded as -0.05.
Consider `CS(=O)(=O)N1C[C@H]2CCN(C(=O)Cc3c[nH]c4ccccc34)C[C@@]2(CO)C1`, for which the “% Inhibition” value is reported as -5% and the Z score was determined as 0.64.
`O=C(c1c(Cl)cccc1Cl)N(C(=O)c1c(Cl)cccc1Cl)c1nc2ccccc2s1`: the “% Inhibition” value was -21% and the Z score amounted to 2.81.
On to `CN(CCNS(=O)(=O)c1cnn2c1OCCC2)c1ccccn1`, for which the “% Inhibition” value worked out at 0% and the Z score came out at 0.06.
`CCCc1ccc(C(=O)N2c3ccccc3C(Nc3ccccc3)[C@H](C)C2CC)cc1` (stereo partly drawn): the “% Inhibition” value was found to be 6% and the Z score is given as -0.76.
In the same order, the values of `Cc1ncsc1CN[C@@H](C)CC(C)(C)C#N` are 11% and -1.38.
In the same order, the values of `N#Cc1cc(F)ccc1CN1C(=O)[C@@H]2CCCN2C1=O` are -14% and 1.76.
The like results for `Cn1ccc(NC(=O)N2CCN(CCOc3ccc4c(c3)CCC4)CC2)n1` were, in that order, 5% and -0.64.
With `COC(=O)CN(C)c1ccc(C(=O)NC2CCOCC2)nn1`, the “% Inhibition” value is listed as -3% and the Z score was 0.37.
The like results for `Fc1cccc2c(N3CCC3)ncnc12` were, in that order, 3% and -0.63.
With `C[C@](O)(CNC(=O)c1ccsn1)C(F)(F)F`, the “% Inhibition” value was -7% and the Z score is reported as 1.2.
Turning to `c1nc(Oc2ccc3c(c2)CCC3)c2ccsc2n1`, the “% Inhibition” value is on record as -8% and the Z score stood at 1.21.
As for `CN1C(=O)C(C)(C)c2cc(S(=O)(=O)N3CCC[C@H](CN4CCc5ccccc5C4)C3)ccc21`, the “% Inhibition” value was -13% and the Z score is 1.68.
As for `CCCN(CC(=O)Nc1nc(CC(=O)NCCN2CCCCC2)cs1)C(=O)c1ccc(Cl)c(Cl)c1`, the “% Inhibition” value is -12% and the Z score worked out at 2.25.
In the same order, the values of `COc1cccc(-n2ccc3c(nnc4nc(C)nn43)c2=O)c1` are -3% and 0.35.
In the same order, the values of `Cc1ccc(CNC(=O)c2nc(-c3nc(-c4ccncc4)no3)cs2)cc1` are -13% and 1.33.
Regarding `O=C(Nc1ccc(S(=O)(=O)Nc2cccc3ccccc23)cc1)c1ccc(Br)cc1`, the “% Inhibition” value is reported as -13% and the Z score is on record as 1.76.
In the same order, the values of `O=C(N[C@@H](c1ccccc1)c1nc2ccccc2[nH]1)c1ccco1` are -6% and 0.77.
The like results for `Cc1cnc(C)c(N2CC(c3ccncc3)C2)n1` were, in that order, -10% and 1.32.
With `CC1(C)[C@H](Cc2cc(COc3ccccc3)on2)C[C@@H]1NC1CCOCC1`, the “% Inhibition” value is listed as 18% and the Z score is -2.1.
The like results for `O=C(CC1CCCC1)N1CC(Nc2ccncn2)C1` were, in that order, -8% and 0.95.
The like results for `Cc1cc(NC(=O)N2CC[C@H](CN3CCCC3)C2)ccc1Br` were, in that order, -5% and 0.69.
The like results for `Cc1ncccc1C(=O)N1CC[C@@H](c2ccccc2)S(=O)(=O)CC1` were, in that order, -5% and 0.85.
Consider `O=C(CCc1nc(-c2ccsc2)no1)Nc1cccc(-c2nnco2)c1`, for which the “% Inhibition” value is -3% and the Z score amounted to 0.47.
As to `CC1CN(S(=O)(=O)NCc2nc3ccccc3s2)CC(C)O1` (stereo not drawn), the “% Inhibition” value was -12% and the Z score is 1.21.
As for `O=C1C[C@H](NS(=O)(=O)c2ccc3c(c2)OCCO3)CN1c1ccc2c(c1)OCCO2`, the “% Inhibition” value was 10% and the Z score is given as -1.4.
For `COC(=O)NCC(=O)NCC1(Cc2ccccc2)CCC1`, the “% Inhibition” value is 29% and the Z score is listed as -3.27.
For the compound `CC(NC(C)c1ccccc1Cl)C(=O)NC(C)(C)C` (stereo not drawn), the “% Inhibition” value was 4% and the Z score was -0.48.
In the same order, the values of `COC(=O)C1(CNC(=O)N2CC(C)C2c2ccccc2)CCOCC1` (stereo not drawn) are -3% and 0.42.
Regarding `COc1ccc(NC(=O)C2C3CCC4C(CCC32)C4(Cl)Cl)cc1` (stereo not drawn), the “% Inhibition” value is -7% and the Z score worked out at 0.77.
In the same order, the values of `CC(=O)c1ccc(-c2ccc(C(=O)NC3CCCCCC3)o2)cc1` are -12% and 1.03.
In the case of `CCCc1ccc(-c2nc(NC(=O)c3cc4c([nH]c3=O)CCCC4=O)sc2C)cc1`, the “% Inhibition” value is listed as 2% and the Z score was -0.3.
The like results for `C[C@H]1Cc2ccccc2N1C(=O)Cn1cc(-c2ccn(C)n2)nn1` were, in that order, 6% and -0.77.
For `CC(=O)NC(C)(C)C[C@H](C)NC1(c2cccc(C)c2)CC1`, the “% Inhibition” value was -11% and the Z score was 1.81.
The like results for `O=C(O)CC[C@H]1CCCN(C(=O)c2ccc3c(c2)OCCCO3)C1` were, in that order, 11% and -1.72.
The like results for `CC(=O)Nc1cccc(C(F)F)c1Cl` were, in that order, -3% and 0.44.
The like results for `N#CC1(c2nc3ccccc3[nH]2)CC1c1ccccc1Cl` (stereo not drawn) were, in that order, 27% and -3.07.
`O=C(c1c[nH]c(=O)cn1)N1CCc2c(Cl)cccc21`: the “% Inhibition” value was determined as 17% and the Z score is recorded as -2.01.
In the same order, the values of `COc1ccc(N[C@H]2CC(=O)N(c3ccc(C(C)=O)cc3)C2=O)cc1S(=O)(=O)N1CCOCC1` are 0% and 0.04.
In the same order, the values of `O=C(NC[C@@H](CO)Cc1ccsc1)c1ccc(-n2cnnc2)nc1` are -1% and 0.26.
With `O=C([C@H]1CC[C@H](Cn2cnnn2)CC1)N1CCO[C@H](c2ccccc2)C1`, the “% Inhibition” value is on record as -10% and the Z score stood at 1.43.
The like results for `Cc1cc2cc(S(=O)(=O)N3CCCC3(C)C)ccc2[nH]c1=O` were, in that order, -11% and 1.47.
As to `Cc1c(CNC(=O)c2ncoc2C(F)(F)F)cnn1C`, the “% Inhibition” value was 9% and the Z score was -1.27.
`CC(C)(C)CC(C)(C)Nc1c(-c2ccc(F)cc2)nc2c(OCc3ccccc3)cccn12`: the “% Inhibition” value was -2% and the Z score amounted to 0.32.
In the same order, the values of `COc1cccc(C2c3[nH]c4ccccc4c3C[C@H]3C(=O)N(CCO)CC(=O)N23)c1` (stereo partly drawn) are -1% and 0.12.
In the same order, the values of `OCCn1c(-c2cccc3cccnc23)nc2ccccc21` are -11% and 2.03.
For `COc1cc(C2N[C@H](C(=O)O)Cc3c2[nH]c2ccccc32)ccc1OCc1ccccc1` (stereo partly drawn), the “% Inhibition” value is reported as -3% and the Z score is recorded as 0.42.
Regarding `O=S(=O)(N1CCCC1)N1CCc2c(ncnc2N2CCOCC2)C1`, the “% Inhibition” value is recorded as -3% and the Z score amounted to 0.45.
As for `COc1ccc(-c2cc(C(=O)N3CCCCCC3)[nH]n2)cc1`, the “% Inhibition” value stood at 1% and the Z score is given as -0.13.
Turning to `CC1CCCN(C(=O)Nc2ccncn2)C1C` (stereo not drawn), the “% Inhibition” value amounted to 2% and the Z score is -0.25.
The like results for `Cn1c(=O)c2c(ncn2CCCC(=O)N2CCC(C(=O)N3CCCCCC3)CC2)n(C)c1=O` were, in that order, -5% and 0.64.
For the compound `COc1cc(C(=O)N[C@@H]2COCC[C@@H]2OCC(=O)N(C)C)ccc1O`, the “% Inhibition” value is reported as -3% and the Z score is 0.48.
As to `O=C(c1ccc(Cl)c(N2CCCC2=O)c1)N1CC=C(c2c[nH]c3ccccc23)CC1`, the “% Inhibition” value came to 1% and the Z score is on record as -0.17.
The like results for `CCNC(=O)N[C@H]1CC(=O)N(C2Cc3ccccc3C2)C1` were, in that order, 5% and -0.61.
In the same order, the values of `c1cnc(-n2cnc3ccccc32)c(CNC2CCOCC2)c1` are -11% and 1.74.
In the same order, the values of `CCNc1ncc(CN(C)CCC2(O)CCCC2)cn1` are 2% and -0.3.
Take `O=C(NCc1cccs1)NC1CCCC1`: the “% Inhibition” value worked out at 29% and the Z score was -3.95.
The like results for `CC(C)(C)S(=O)(=O)[C@H]1CCN(C(=O)CCc2ccc(Cl)c(C(F)(F)F)c2)C1` were, in that order, -6% and 0.86.
The like results for `CC(C)CCNC(=O)c1[nH]cnc1C(=O)NCC1CC1` were, in that order, 10% and -1.21.
As for `CC(C)N1CCN(C(=O)c2nccnc2NC(=O)c2ccccc2)CC1`, the “% Inhibition” value is 1% and the Z score is on record as -0.15.
For `CC(=O)NC(C)(C)C(=O)NCc1cc(C2CC2)on1`, the “% Inhibition” value is -2% and the Z score amounted to 0.28.
The like results for `O=C(NCCN1CCOCC1)c1cncc(-c2ccccc2F)c1` were, in that order, -2% and 0.28.
On to `C=CCn1cc2c3c(cccc31)[C@H](CC(C)C)N[C@H](C(=O)NCCCN1CCCC1=O)C2`, for which the “% Inhibition” value was -15% and the Z score amounted to 1.98.
With `COC(=O)C(C#N)C(C#N)c1ccccc1F` (stereo not drawn), the “% Inhibition” value is -9% and the Z score was found to be 1.
The like results for `Cc1ccc([C@H](C)NC(=O)c2sccc2C2CC2)s1` were, in that order, -19% and 1.94.
The like results for `CC(=O)Nc1cc(C(=O)N/C(=N/c2ccc(C(C)C)cc2)NCc2ccccn2)ccc1C` were, in that order, -29% and 2.64.
Regarding `Cc1nc2ccccc2n1-c1nc(-c2ccco2)cc(C(F)(F)F)n1`, the “% Inhibition” value is on record as -4% and the Z score worked out at 0.68.
In the same order, the values of `COC(=O)c1n[nH]cc1-c1cc(-c2ccc(C)c(C)c2)nc(N)c1C#N` are 6% and -0.61.
In the same order, the values of `CCc1c(C)noc1NC(=O)c1cnc(C2CC2)nc1` are -6% and 0.96.
Take `COc1cccc(CNS(=O)(=O)c2ccc(C(=O)N3CCCC3)s2)c1`: the “% Inhibition” value is -14% and the Z score was 2.55.
`CCOC(=O)NCCC(=O)NCc1nc(C)n2c1CCCC2`: the “% Inhibition” value is -2% and the Z score is on record as 0.24.
The like results for `Cc1ccc(CN2CCOC[C@@H](C3CCC3)C2)nc1` were, in that order, -2% and 0.18.
Consider `O=C(NCCc1ccccc1)c1coc(CN2CCN(c3ncccn3)CC2)n1`, for which the “% Inhibition” value is -1% and the Z score was determined as 0.17.
The like results for `COc1ccc(CN(C)Cc2nc(C)no2)c(OC[C@@H](O)CN2CCCC2)c1` were, in that order, 6% and -1.05.
The like results for `COCCN(C)c1ncc(F)c(NCC(F)F)n1` were, in that order, 11% and -1.41.
